# Measured values from the supplement of paper PMC7826260.
# The list shows a part of the results. Viral Rep nickase domains cut single-stranded DNA in vitro (1 h at 37 °C, 3 µM enzyme); the outer parts of the 90-letter strands are left off. Values are log2 of uncut reads against the no-enzyme pool; more negative means more cut, near 0 not cut, and no call is made. Reads are scaled to the total; uncut strands gain when others are lost, and binding without cutting may add a little.
# Tested on: T1, Rep nickase domain of Muscovy duck circovirus
# T1 sequence (protein, residues 1-111, tag omitted): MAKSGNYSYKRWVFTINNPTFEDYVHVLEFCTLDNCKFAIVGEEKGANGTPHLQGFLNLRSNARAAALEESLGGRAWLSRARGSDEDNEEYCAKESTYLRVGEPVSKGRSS
# Test: uncleaved DNA left, log2 of reads against the no-enzyme library (log2 ratio); higher = less cleavage (more negative = more Rep cleavage of the k-mer); sequences stand for … in CTCGTCCG…ACCGGAGA
# Protocol: (§1)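 A pool of 90-nt single-stranded DNAs with seven random bases just before the constant AC of the nick site (name = the seven bases) was cut by 3 µM recombinant His6-SUMO-tagged Rep nickase domain (300 nM DNA, 50 mM HEPES pH 8.0, 50 mM NaCl, 1 mM MnCl2, 1 h, 37 °C, three replicates). Uncut DNA was amplified and sequenced.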
row,Sequence,uncleaved DNA left (log2)
1,GTATGAC,0.0423
2,AACACGA,0.0549
3,TGAACGT,0.132
4,CGACGTT,0.101
5,TCTACGG,-0.0245
6,CCCTGCT,-0.502
7,GAACCCT,-0.0979
8,ACCGTAG,0.129
9,ACCGGTG,0.124
10,CATAATT,-0.591
11,CGGAGAT,-0.0539
12,ACTTCGG,-0.0721
13,GAAGGAG,0.0906
14,AGGGCTT,0.0553
15,ACACGCT,0.108
16,CTAAAGC,0.0587
17,TCTTTAT,-0.175
18,TAAAGGC,0.046
19,TCACGGA,0.0661
20,ACGCTCA,0.0391

row,Sequence,uncleaved DNA left (log2)
1,GAATACT,-2.93
2,AGTTGCT,-0.329
3,TGACGAT,-0.0186
4,TCTGATA,-0.195
5,GCACTAG,-0.0426
6,TACCGGG,-0.0523
7,ATCCTGC,0.0533
8,ACTCTAC,-0.0238
9,AACAAGT,0.0824
10,TTTATTT,-0.179
11,GTATGCA,-0.0777
12,TCCACGT,0.0261
13,GCTTGTG,-0.0426
14,CCTCTGG,0.105
15,CATTGGG,-0.00852
16,AGCTCAC,0.0359
17,CACAAAA,-0.00955
18,ACATCAC,-0.0854
19,GCTGATG,0.0847
20,TTCCAAG,0.00597

# Tested on: T2, Rep nickase domain of banana bunchy top virus
# T2 sequence (protein, residues 1-94, tag omitted): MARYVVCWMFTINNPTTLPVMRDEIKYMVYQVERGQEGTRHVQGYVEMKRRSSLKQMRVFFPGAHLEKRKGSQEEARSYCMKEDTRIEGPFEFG
# Test: as above
# Protocol: as §1
row,Sequence,uncleaved DNA left (log2)
1,GTATGAC,0.0702
2,AACACGA,-0.11
3,TGAACGT,0.178
4,CGACGTT,0.0109
5,TCTACGG,0.0788
6,CCCTGCT,-0.068
7,GAACCCT,0.0398
8,ACCGTAG,-0.0119
9,ACCGGTG,-0.0355
10,CATAATT,-3.26
11,CGGAGAT,0.0793
12,ACTTCGG,-0.036
13,GAAGGAG,0.166
14,AGGGCTT,0.0751
15,ACACGCT,-0.0927
16,CTAAAGC,0.109
17,TCTTTAT,-0.106
18,TAAAGGC,-0.0206
19,TCACGGA,0.00828
20,ACGCTCA,-0.0351

row,Sequence,uncleaved DNA left (log2)
1,GAATACT,-1.94
2,AGTTGCT,-0.177
3,TGACGAT,-0.0472
4,TCTGATA,-0.0614
5,GCACTAG,-0.0693
6,TACCGGG,-0.0757
7,ATCCTGC,-0.0195
8,ACTCTAC,-0.146
9,AACAAGT,0.122
10,TTTATTT,-0.144
11,GTATGCA,0.0228
12,TCCACGT,0.106
13,GCTTGTG,-0.174
14,CCTCTGG,-0.101
15,CATTGGG,-0.1
16,AGCTCAC,-0.0456
17,CACAAAA,0.016
18,ACATCAC,-0.128
19,GCTGATG,-0.0543
20,TTCCAAG,-0.0801

# Tested on: T3, Rep nickase domain of cabbage leaf curl virus
# T3 sequence (protein, residues 1-116, tag omitted): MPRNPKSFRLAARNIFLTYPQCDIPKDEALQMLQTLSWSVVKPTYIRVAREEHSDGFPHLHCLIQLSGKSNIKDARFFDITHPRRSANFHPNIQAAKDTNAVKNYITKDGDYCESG
# Test: as above
# Protocol: as §1
row,Sequence,uncleaved DNA left (log2)
1,GTATGAC,0.481
2,AACACGA,-0.384
3,TGAACGT,0.158
4,CGACGTT,0.0451
5,TCTACGG,0.586
6,CCCTGCT,-0.677
7,GAACCCT,0.0643
8,ACCGTAG,-0.605
9,ACCGGTG,-0.273
10,CATAATT,-0.577
11,CGGAGAT,0.173
12,ACTTCGG,-0.181
13,GAAGGAG,0.0163
14,AGGGCTT,0.421
15,ACACGCT,-0.837
16,CTAAAGC,-0.083
17,TCTTTAT,0.142
18,TAAAGGC,-0.0615
19,TCACGGA,0.0915
20,ACGCTCA,-0.231

row,Sequence,uncleaved DNA left (log2)
1,GAATACT,-3.18
2,AGTTGCT,-0.862
3,TGACGAT,0.0999
4,TCTGATA,-0.00902
5,GCACTAG,-0.693
6,TACCGGG,0.263
7,ATCCTGC,-0.595
8,ACTCTAC,-0.487
9,AACAAGT,0.0294
10,TTTATTT,0.0268
11,GTATGCA,0.055
12,TCCACGT,0.24
13,GCTTGTG,-0.752
14,CCTCTGG,0.121
15,CATTGGG,-0.674
16,AGCTCAC,-0.102
17,CACAAAA,0.022
18,ACATCAC,-0.527
19,GCTGATG,-0.132
20,TTCCAAG,-0.799
